Results as given in PubChem BioAssay AID588453 (National Center for Advancing Translational Sciences (NCATS), 2011).
Where “and” joins values, the source holds several entries; their conditions need not be identical. Equal entries are not always repeated. Among all 390,000 compounds or so, about 4,000 (1%) were called active. The shares of active, inactive and inconclusive entries below differ from those in the screen. The call rests on the fitted dose curve; in most records, active means well fitted inhibition curve with a large enough effect; inconclusive means small, poorly fitted or top-dose-only effect; inactive means no such curve, though single readings can be large or run the other way. A potency beside an inconclusive call is a rough fit, not a confirmed value.

target: Thioredoxin reductase 1, cytoplasmic (Rattus norvegicus) (UniProt O89049); assay: qHTS Assay for Inhibitors of Mammalian Selenoprotein Thioredoxin Reductase 1 (TrxR1): qHTS; conditions: recombinant rTrxR1, NADPH fluorescence consumption, selenite substrate; series mostly up to 114 µM; further: nearly all actives have a fitted effect of over 65% in size
Procedure, shortened: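 Rat TrxR1 (90 nM in the dispensed reagent) was pre-reduced with 400 uM NADPH for 5 min at room temperature, then incubated with compound for 15 min. After 400 uM selenite was added, NADPH fluorescence (Ex 340/Em 450 nm) was followed for 8 min.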
Potency means the concentration at half of the fitted maximal effect; tags describe the fitted curve by direction and shape.

Sequence of UniProt O89049 (O89049 whole entry, looked up): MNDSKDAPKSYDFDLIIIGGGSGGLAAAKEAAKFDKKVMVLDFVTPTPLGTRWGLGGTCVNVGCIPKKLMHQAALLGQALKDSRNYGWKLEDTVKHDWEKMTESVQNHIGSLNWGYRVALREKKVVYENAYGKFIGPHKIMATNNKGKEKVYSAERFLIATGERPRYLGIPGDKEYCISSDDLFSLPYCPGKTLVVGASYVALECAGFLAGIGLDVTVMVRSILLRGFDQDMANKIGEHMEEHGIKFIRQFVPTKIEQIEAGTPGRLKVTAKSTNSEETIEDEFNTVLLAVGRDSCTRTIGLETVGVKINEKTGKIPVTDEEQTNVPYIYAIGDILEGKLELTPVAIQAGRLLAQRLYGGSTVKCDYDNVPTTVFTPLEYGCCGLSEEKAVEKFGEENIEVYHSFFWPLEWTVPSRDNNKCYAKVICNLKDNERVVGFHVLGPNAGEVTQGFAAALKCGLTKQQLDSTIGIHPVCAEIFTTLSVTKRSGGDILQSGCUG

Q: `CCOc1ccc(C(C)=O)cc1CSc1nnc(-c2ccoc2C)n1N` was tested. Which Potency did it give?
A: Its Potency is inconclusive: 50.1 µM [inhibitor, partial curve].

Q: Which Potency does the source give for `O=C(CSc1nnc(-c2cccnc2)n1Cc1ccco1)c1ccc(Br)cc1` here?
A: Its Potency is inconclusive: 39.8 µM [inhibitor, partial curve].

Q: With `O=C1CC(NC23CC4CC(CC(C4)C2)C3)C(=O)N1c1ccc2c(c1)OCO2` (stereo unspecified) as the molecule, how does the Potency read?
A: Its Potency is inconclusive: 70.8 µM [inhibitor, single point].

Q: How did the Potency turn out when `O=C(O)c1ccc(NC(=S)NC(=O)c2ccc(-c3ccc(Br)cc3)o2)cc1` was run?
A: Its Potency is inconclusive: 20 µM [inhibitor, partial curve, poor fit].

Q: For `Cc1nn(Cc2n[nH]c(=S)n2Cc2ccccc2)c(C)c1Cl`, which Potency is on record?
A: Its Potency is inconclusive: 1.58 µM [inhibitor, full curve, poor fit].

Q: `COc1ccccc1/C=C/C(=O)c1c2c(c(C)[nH]c1=O)CCCC2` was tested. Which Potency did it give?
A: Its Potency is inconclusive: 70.8 µM [inhibitor, single point].

Q: How did the Potency turn out when `O=[N+]([O-])c1ccc(CSc2ncnc3c2ncn3[C@@H]2O[C@H](CO)[C@@H](O)[C@H]2O)cc1` was run?
A: Its Potency is inconclusive: 33.6 µM [inhibitor, partial curve, poor fit].

Q: How did the Potency turn out when `O=C(CCNc1ccc(F)cc1)c1cc2ccccc2o1` was run?
A: The Potency was inconclusive: 4.47 µM [inhibitor, full curve].

Q: With `Cc1ccc(S(=O)(=O)N2CCN(C(=O)c3cc(S(=O)(=O)N(C)C)ccc3N3CCCC3)CC2)cc1` as the molecule, how does the Potency read?
A: Its Potency is “inactive”.

Q: With `Cc1cccc(-n2c(C)cc(C(=O)C(=O)Nc3ccccc3F)c2C)c1C` as the molecule, how does the Potency read?
A: Its Potency is “inactive”.

Q: `CCOc1ccccc1NC(=O)CN1CCC(NC(=O)c2ccccc2C)CC1` was tested. Which Potency did it give?
A: The Potency was “inactive”.

Q: How did the Potency turn out when `COc1cccc(NC(=O)c2nc(SC)ncc2Cl)c1` was run?
A: The Potency was inconclusive: 17.8 µM [inhibitor, partial curve, poor fit].

Q: Which Potency does the source give for `CC1(C)CC(=O)C(=CN2CCN(C(=O)c3ccco3)CC2)C(=O)C1` here?
A: The Potency was inconclusive: 44.7 µM [inhibitor, partial curve].

Q: Which Potency does the source give for `CCOC(=O)c1ccc(-c2ccc(C=O)o2)cc1` here?
A: Its Potency is inconclusive: 39.8 µM [inhibitor, single point].

Q: How did the Potency turn out when `O=Nc1ccc2oc(=O)ccc2c1` was run?
A: Its Potency is inconclusive: 37.7 µM [inhibitor, partial curve, poor fit] and inconclusive: 26.7 µM [inhibitor, single point].

Q: How did the Potency turn out when `COc1ccc(OC)c(C2C(C(=O)c3ccc(C)o3)=C(O)C(=O)N2CCCN2CCOCC2)c1` (stereo unspecified) was run?
A: Its Potency is inconclusive: 44.7 µM [inhibitor, partial curve, poor fit].

Q: For `CCOc1ccc(NC(=O)c2cc3cc4ccc(OC)cc4nc3o2)cc1`, which Potency is on record?
A: Its Potency is “inactive”.

Q: How did the Potency turn out when `O=S(=O)(NCC(c1ccccc1)N1CCNCC1)c1ccc(Cl)cc1` (stereo unspecified) was run?
A: Its Potency is inconclusive: 79.4 µM [inhibitor, single point].

Q: How did the Potency turn out when `CC(/C=C\C=C\c1ccccc1)=N\NC(=O)c1cncc(Br)c1` was run?
A: Its Potency is inconclusive: 14.1 µM [inhibitor, single point].

Q: Which Potency does the source give for `Cc1cc(C)c2c(n1)nn1c(NCCCN(C)C)cc(C)nc21` here?
A: The Potency was inconclusive: 70.8 µM [inhibitor, single point].

Q: With `COc1ccc(C2c3ccc(O)cc3Oc3ncn(Cc4ccco4)c(=N)c32)cc1` (stereo unspecified) as the molecule, how does the Potency read?
A: Its Potency is active: 50.1 µM.

Q: Which Potency does the source give for `COC1=CC(=O)c2ccccc2C1=O` here?
A: Its Potency is inconclusive: 39.8 µM [inhibitor, single point].

Q: How did the Potency turn out when `CCOc1cc(C)ccc1OCc1nnc(SCC(=O)c2cccc([N+](=O)[O-])c2)n1CC` was run?
A: Its Potency is inconclusive: 25.1 µM [inhibitor, single point].

Q: `COc1ccc(OC)c(-n2c(-c3cccc(S(=O)(=O)N(C)C)c3)n[nH]c2=S)c1` was tested. Which Potency did it give?
A: Its Potency is inconclusive: 56.2 µM [inhibitor, partial curve, poor fit].

Q: For `COc1ccc(C(=O)C(CCC(CNC(C)(C)C)C(=O)c2ccc(OC)cc2)CNC(C)(C)C)cc1` (stereo unspecified), which Potency is on record?
A: Its Potency is inconclusive: 11.2 µM [inhibitor, full curve, poor fit].

Q: Which Potency does the source give for `O=C(/C=C/c1ccccc1)c1cc(Br)ccc(=O)c1O` here?
A: Its Potency is inconclusive: 1 µM [inhibitor, full curve, poor fit].

Q: For `O=C(Oc1ccc2ccc(=O)oc2c1)c1ccco1`, which Potency is on record?
A: The Potency was inconclusive: 56.2 µM [inhibitor, partial curve, poor fit].

Q: For `N#CC1=C(N)C(C#N)(C#N)[C@H](c2ccncc2)[C@H]2CN(C(=O)OCc3ccccc3)CC=C12`, which Potency is on record?
A: Its Potency is inconclusive: 31.6 µM [inhibitor, partial curve, poor fit].

Q: Which Potency does the source give for `O=C(O)c1cc(=O)c2c(Cl)cc(Cl)cc2[nH]1` here?
A: The Potency was inconclusive: 8.44 µM [inhibitor, partial curve, poor fit].

Q: With `COc1cccc(-c2nc(CS(=O)(=O)CC(=O)NC3CCCc4ccccc43)c(C)o2)c1` (stereo unspecified) as the molecule, how does the Potency read?
A: Its Potency is active: 10 µM.

Q: For `O=C(NNC(=O)c1cc2ccccc2oc1=O)c1ccccc1`, which Potency is on record?
A: Its Potency is “inactive”.

Q: Which Potency does the source give for `COc1ccc2c(/C=N/NS(=O)(=O)c3ccc(C)cc3)c[nH]c2c1` here?
A: Its Potency is inconclusive: 70.8 µM [inhibitor, partial curve].

Q: How did the Potency turn out when `CCOc1cc(C(=O)Nc2cc3c(cc2N2CCCC2)n(C)c(=O)c(=O)n3C)cc(OCC)c1OCC` was run?
A: The Potency was inconclusive: 25.1 µM [inhibitor, partial curve].

Q: With `Cc1ccc(Sc2ccc(NC(=O)CCl)cc2)c(C)c1` as the molecule, how does the Potency read?
A: The Potency was inconclusive: 17.8 µM [inhibitor, partial curve, poor fit].

Q: For `Cc1ccc(NC(=O)CSc2ccc(-c3ccco3)nn2)cc1`, which Potency is on record?
A: Its Potency is inconclusive: 25.1 µM [inhibitor, partial curve, poor fit].

Q: `CC(C)(C)c1ccc(S(=O)(=O)/N=C2\C=C(NS(=O)(=O)c3ccccc3)C(=O)c3ccccc32)cc1` was tested. Which Potency did it give?
A: The Potency was inconclusive: 89.1 µM [inhibitor, partial curve, poor fit].

Q: For `CN(C)c1ccc(/C=N/NC(=O)COc2ccccc2)cc1`, which Potency is on record?
A: Its Potency is “inactive”.

Q: Which Potency does the source give for `COc1cc2[nH]c(C)c(CCN3CCN(c4ccccc4)CC3)c2cc1OC` here?
A: Its Potency is “inactive”.

Q: Which Potency does the source give for `O=C(NCc1ccc(F)cc1)C1CCN(S(=O)(=O)N2CCCC2)CC1` here?
A: The Potency was “inactive”.

Q: How did the Potency turn out when `CC(C)(C)c1ccc(C(=O)C[n+]2ccccc2Cl)cc1` was run?
A: The Potency was “inactive”.

Q: `CSc1n[nH]c(-c2ccco2)n1` was tested. Which Potency did it give?
A: The Potency was “inactive”.

Q: `CCS(=O)(=O)c1ccc(O)c(NC(=O)c2cc(-c3ccccn3)nc3ccccc23)c1` was tested. Which Potency did it give?
A: The Potency was inconclusive: 100 µM [inhibitor, single point].

Q: How did the Potency turn out when `COC(=O)c1ccc(C(=O)OC)c(NC(=S)N2CCCC(C)C2)c1` (stereo unspecified) was run?
A: The Potency was “inactive”.

Q: Which Potency does the source give for `CCc1ccccc1NC(=O)C1CCN(S(=O)(=O)c2cn(C)cn2)CC1` here?
A: Its Potency is “inactive”.

Q: Which Potency does the source give for `COc1cccc(NC(=O)CCN2C(=O)c3ccccc3Sc3ncccc32)c1` here?
A: The Potency was active: 70.8 µM.

Q: How did the Potency turn out when `CCc1cc(=O)oc2cc(C)c(CN3CCCC(C)C3)c(O)c12` (stereo unspecified) was run?
A: The Potency was inconclusive: 70.8 µM [inhibitor, partial curve, poor fit].

Q: How did the Potency turn out when `COc1ccc2c(c1)cc(C(=O)N[C@@H](CCSC)C(=O)N1CCC[C@H]1C(=O)O)n2C` was run?
A: The Potency was inconclusive: 100 µM [inhibitor, single point].

Q: With `O=C(N/N=C/c1ccc([N+](=O)[O-])o1)C(=O)Nc1ccc(C(=O)O)cc1` as the molecule, how does the Potency read?
A: Its Potency is inconclusive: 44.7 µM [inhibitor, partial curve].

Q: With `C/C(=C\c1ccccc1)C1NC(=O)c2c(sc3c2CCCC3)N1` (stereo unspecified) as the molecule, how does the Potency read?
A: Its Potency is inconclusive: 35.5 µM [inhibitor, full curve, poor fit].

Q: Which Potency does the source give for `CCc1nc(SCC(=O)c2cc(C)ccc2C)n[nH]1` here?
A: Its Potency is inconclusive: 11.2 µM [inhibitor, partial curve].

Q: `O=c1[nH]c(=S)[nH]c2nc[nH]c12` was tested. Which Potency did it give?
A: The Potency was inconclusive: 1.78 µM [inhibitor, full curve, poor fit].

Q: With `O=c1[nH]nc(-c2ccc([N+](=O)[O-])o2)c(=O)[nH]1` as the molecule, how does the Potency read?
A: The Potency was active: 12.6 µM.

Q: Which Potency does the source give for `Cc1ccc(-n2c(Cc3cccc4ccccc34)n[nH]c2=S)c(C)c1` here?
A: Its Potency is “inactive”.

Q: Which Potency does the source give for `O=C(NC1=C(NC2CCS(=O)(=O)C2)C(=O)c2ccccc2C1=O)c1ccccc1` (stereo unspecified) here?
A: The Potency was active: 50.1 µM.

Q: `Cc1ccc(NC=C(S(=O)(=O)c2ccccc2)S(=O)(=O)c2ccccc2)cc1` was tested. Which Potency did it give?
A: Its Potency is inconclusive: 56.2 µM [inhibitor, single point].

Q: For `N=C1/C(=C\c2ccc(-c3ccc(C(=O)O)cc3)o2)C(=O)N=C2SC=C(c3ccccc3)N12`, which Potency is on record?
A: Its Potency is inconclusive: 79.4 µM [inhibitor, single point].

Q: For `Cc1ccc(C(=O)NC(=S)/C=C2\N(C)c3ccccc3C2(C)C)cc1`, which Potency is on record?
A: The Potency was “inactive”.

Q: How did the Potency turn out when `O=C(Nc1nccs1)[C@@H]1CC=C[C@@H]2CCN(C3CC3)C(=O)[C@@H]21` was run?
A: The Potency was “inactive”.

Q: Which Potency does the source give for `CCN1C(C(=O)c2ccccc2)=C(OC(=O)COc2ccc(C)cc2)c2ccccc2S1(=O)=O` here?
A: Its Potency is active: 20 µM.

Q: For `CCCN1CNc2c(c(=O)[nH]c(=S)n2CCc2cccc(OC)c2)C1`, which Potency is on record?
A: Its Potency is “inactive”.

Q: How did the Potency turn out when `O=C(Nc1cc(N2CCOCC2)ncn1)NC1(C(F)(F)F)Oc2ccccc2O1` was run?
A: The Potency was inconclusive: 28.2 µM [inhibitor, single point].

Q: With `CC(=O)c1c(N2CCCC2)[nH]c(-c2ccccc2)nc1=S` as the molecule, how does the Potency read?
A: The Potency was inconclusive: 56.2 µM [inhibitor, partial curve, poor fit].

Q: How did the Potency turn out when `COc1cc(C(Nc2ccc(S(=O)(=O)N3CCC(C)CC3)cc2)C(=O)NCC2CCCO2)cc(OC)c1OC` (stereo unspecified) was run?
A: Its Potency is inconclusive: 50.1 µM [inhibitor, partial curve].

Q: How did the Potency turn out when `Clc1ccc(CNc2cnccn2)cc1Cl` was run?
A: The Potency was inconclusive: 7.94 µM [inhibitor, single point].

Q: Which Potency does the source give for `N#Cc1ccccc1N1CCN(C(=O)c2ccc(NC(=O)c3ccc(Br)o3)cc2)CC1` here?
A: Its Potency is inconclusive: 79.4 µM [inhibitor, single point].

Q: For `CCCn1c(C)cc(/C=C(\C#N)C(=O)OCC(=O)Nc2cccc(OC)c2)c1C`, which Potency is on record?
A: The Potency was inconclusive: 79.4 µM [inhibitor, single point].
